Many values rest on one well or one pass, so single values are uncertain.
What was measured:
CHO-K1 [1] = experiment: relative survival (nuclei to bead ratio vs DMSO control) (% of vehicle control); higher = more surviving cells
CHO-K1 [2] = experiment: micronucleus frequency (% of nucleated events); higher = more micronuclei (genotoxic)
CHO-K1 [3] = experiment: hypodiploid nuclei frequency (% of nucleated events); higher = more hypodiploid events (aneugenic)
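Throughout, for hypodiploid nuclei frequency (% of nucleated events): hypodiploid nuclei gated on a flow cytometer with 488 nm excitation after SYTOX Green staining, cultures at 37 °C, positive controls vinblastine without S9 and cyclophosphamide with S9.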
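Throughout, for micronucleus frequency (% of nucleated events): cells lysed with nuclei stained by SYTOX Green, then micronucleus-gated events counted against nucleated events by flow cytometry with 488 nm excitation.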
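Throughout, for relative survival (nuclei to bead ratio vs DMSO control): Lysed-cell nuclei stained with SYTOX Green and counted against counting beads by flow cytometry at 488 nm excitation, with vinblastine (no S9) and cyclophosphamide (plus S9) as positive controls.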

Cc1ccccc1O [o-Cresol]
Details	hypodiploid nuclei frequency, CHO-K1 [3] [%]	micronucleus frequency, CHO-K1 [2] [%]	relative survival, CHO-K1 [1]
concentration: 4.48 (µM), S9 metabolic activation: with S9, exposure time: 3-4 hours	0.24	1.44	117
concentration: 4.48 (µM), S9 metabolic activation: without S9, exposure time: 24 hours	0.58	1.92	88.5
concentration: 5.6 (µM), S9 metabolic activation: with S9, exposure time: 3-4 hours	0.16	1.34	109
concentration: 5.6 (µM), S9 metabolic activation: without S9, exposure time: 24 hours	0.66	1.78	92.5
concentration: 7 (µM), S9 metabolic activation: with S9, exposure time: 3-4 hours	0.38	1.62	111
concentration: 7 (µM), S9 metabolic activation: without S9, exposure time: 24 hours	0.58	1.62	89.4
concentration: 8.75 (µM), S9 metabolic activation: with S9, exposure time: 3-4 hours	0.24	1.1	128
concentration: 8.75 (µM), S9 metabolic activation: without S9, exposure time: 24 hours	0.66	1.22	104
concentration: 10.9 (µM), S9 metabolic activation: with S9, exposure time: 3-4 hours	0.24	2	91.2
concentration: 10.9 (µM), S9 metabolic activation: without S9, exposure time: 24 hours	0.8	2.6	87
concentration: 13.7 (µM), S9 metabolic activation: with S9, exposure time: 3-4 hours	0.34	2.08	103
concentration: 13.7 (µM), S9 metabolic activation: without S9, exposure time: 24 hours	0.78	1.96	80.5
concentration: 17.1 (µM), S9 metabolic activation: with S9, exposure time: 3-4 hours	0.38	2.34	95.4
concentration: 17.1 (µM), S9 metabolic activation: without S9, exposure time: 24 hours	0.74	1.94	81.3
concentration: 21.4 (µM), S9 metabolic activation: with S9, exposure time: 3-4 hours	0.4	2.04	84.7
concentration: 21.4 (µM), S9 metabolic activation: without S9, exposure time: 24 hours	0.92	1.78	82.1
concentration: 26.7 (µM), S9 metabolic activation: with S9, exposure time: 3-4 hours	0.32	1.12	120
concentration: 26.7 (µM), S9 metabolic activation: without S9, exposure time: 24 hours	0.54	1.32	95.8
concentration: 33.4 (µM), S9 metabolic activation: with S9, exposure time: 3-4 hours	0.28	1.18	132
concentration: 33.4 (µM), S9 metabolic activation: without S9, exposure time: 24 hours	0.56	1.58	90.5
concentration: 41.7 (µM), S9 metabolic activation: with S9, exposure time: 3-4 hours	0.08	1	131
concentration: 41.7 (µM), S9 metabolic activation: without S9, exposure time: 24 hours	0.5	1.54	87.5
concentration: 52.2 (µM), S9 metabolic activation: with S9, exposure time: 3-4 hours	0.18	1.52	119
concentration: 52.2 (µM), S9 metabolic activation: without S9, exposure time: 24 hours	0.64	1.64	106
concentration: 65.2 (µM), S9 metabolic activation: with S9, exposure time: 3-4 hours	0.26	1.16	97.3
concentration: 65.2 (µM), S9 metabolic activation: without S9, exposure time: 24 hours	0.6	2.06	84.3
concentration: 81.5 (µM), S9 metabolic activation: with S9, exposure time: 3-4 hours	0.24	1.36	107
concentration: 81.5 (µM), S9 metabolic activation: without S9, exposure time: 24 hours	0.68	1.66	85.2
concentration: 102 (µM), S9 metabolic activation: with S9, exposure time: 3-4 hours	0.3	1.26	85.6
concentration: 102 (µM), S9 metabolic activation: without S9, exposure time: 24 hours	0.78	2	82.6
concentration: 127 (µM), S9 metabolic activation: with S9, exposure time: 3-4 hours	0.3	1.22	90.2
concentration: 127 (µM), S9 metabolic activation: without S9, exposure time: 24 hours	1.06	2.56	76.3
concentration: 159 (µM), S9 metabolic activation: with S9, exposure time: 3-4 hours	0.18	1.72	88.1
concentration: 159 (µM), S9 metabolic activation: without S9, exposure time: 24 hours	1.48	2.46	74.2
concentration: 199 (µM), S9 metabolic activation: with S9, exposure time: 3-4 hours	0.14	1.46	102
concentration: 199 (µM), S9 metabolic activation: without S9, exposure time: 24 hours	1.74	2.46	67.7

Clc1ccc(C(c2ccc(Cl)cc2)C(Cl)Cl)cc1 [p,p'-DDD]
Details	hypodiploid nuclei frequency, CHO-K1 [3] [%]	micronucleus frequency, CHO-K1 [2] [%]	relative survival, CHO-K1 [1]
concentration: 4.5 (µM), S9 metabolic activation: with S9, exposure time: 3-4 hours	0.18	1.46	134
concentration: 4.5 (µM), S9 metabolic activation: without S9, exposure time: 24 hours	0.82	1.72	127
concentration: 5.63 (µM), S9 metabolic activation: with S9, exposure time: 3-4 hours	0.22	1.38	125
concentration: 5.63 (µM), S9 metabolic activation: without S9, exposure time: 24 hours	0.98	2.04	122
concentration: 7.04 (µM), S9 metabolic activation: with S9, exposure time: 3-4 hours	0.26	1.26	107
concentration: 7.04 (µM), S9 metabolic activation: without S9, exposure time: 24 hours	0.68	1.56	109
concentration: 8.8 (µM), S9 metabolic activation: with S9, exposure time: 3-4 hours	0.18	1.12	134
concentration: 8.8 (µM), S9 metabolic activation: without S9, exposure time: 24 hours	0.84	2.7	115
concentration: 11 (µM), S9 metabolic activation: with S9, exposure time: 3-4 hours	0.24	1	132
concentration: 11 (µM), S9 metabolic activation: without S9, exposure time: 24 hours	0.92	2.22	153
concentration: 13.7 (µM), S9 metabolic activation: with S9, exposure time: 3-4 hours	0.16	1.06	151
concentration: 13.7 (µM), S9 metabolic activation: without S9, exposure time: 24 hours	0.92	2.44	105
concentration: 17.2 (µM), S9 metabolic activation: with S9, exposure time: 3-4 hours	0.14	1.38	189
concentration: 17.2 (µM), S9 metabolic activation: without S9, exposure time: 24 hours	0.9	2.28	97.4
concentration: 21.5 (µM), S9 metabolic activation: with S9, exposure time: 3-4 hours	0.22	0.72	145
concentration: 21.5 (µM), S9 metabolic activation: without S9, exposure time: 24 hours	0.8	2.64	121
concentration: 26.8 (µM), S9 metabolic activation: with S9, exposure time: 3-4 hours	0.18	1.32	113
concentration: 26.8 (µM), S9 metabolic activation: without S9, exposure time: 24 hours	0.9	2.18	119
concentration: 33.6 (µM), S9 metabolic activation: with S9, exposure time: 3-4 hours	0.3	1.68	99.9
concentration: 33.6 (µM), S9 metabolic activation: without S9, exposure time: 24 hours	0.7	2.28	130
concentration: 41.9 (µM), S9 metabolic activation: with S9, exposure time: 3-4 hours	0.2	0.9	129
concentration: 41.9 (µM), S9 metabolic activation: without S9, exposure time: 24 hours	0.94	2.04	116
concentration: 52.4 (µM), S9 metabolic activation: with S9, exposure time: 3-4 hours	0.12	1.12	110
concentration: 52.4 (µM), S9 metabolic activation: without S9, exposure time: 24 hours	0.78	2	110
concentration: 65.5 (µM), S9 metabolic activation: with S9, exposure time: 3-4 hours	0.12	1.18	94.5
concentration: 65.5 (µM), S9 metabolic activation: without S9, exposure time: 24 hours	0.82	2.36	85.5
concentration: 81.9 (µM), S9 metabolic activation: with S9, exposure time: 3-4 hours	0.2	1.02	113
concentration: 81.9 (µM), S9 metabolic activation: without S9, exposure time: 24 hours	0.96	1.78	96
concentration: 102 (µM), S9 metabolic activation: with S9, exposure time: 3-4 hours	0.08	1.3	101
concentration: 102 (µM), S9 metabolic activation: without S9, exposure time: 24 hours	0.64	2.78	102
concentration: 128 (µM), S9 metabolic activation: with S9, exposure time: 3-4 hours	0.18	1.3	104
concentration: 128 (µM), S9 metabolic activation: without S9, exposure time: 24 hours	0.8	2.6	73.6
concentration: 160 (µM), S9 metabolic activation: with S9, exposure time: 3-4 hours	0.36	1.74	84.9
concentration: 160 (µM), S9 metabolic activation: without S9, exposure time: 24 hours	0.56	3.46	71.6
concentration: 200 (µM), S9 metabolic activation: with S9, exposure time: 3-4 hours	0.38	2.93	45.2

Reference: the supplement of paper PMC9151546
